Assay results as given in PubChem BioAssay (NCI).
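Compound exposure: 48 hours, 5 concentrations, 96-well plates. Here, GI50 denotes the concentration required for 50% inhibition of growth. TGI: total growth inhibition.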

Tested on: NCI-H322M lung
Assay: NCI-60 cell line screen, 48 h

Q: Which results are given for COc1ccc2[nH]c(=O)c3c4ccccc4cn3c2c1?
A: GI50: 1.23 µM; TGI: 7.92 µM

Q: COc1cccc(C2c3cc4c(cc3OC(C)(N3CCCC3)C2C)OCO4)c1OC (centres undefined) was tested. Which TGI did it give?
A: The TGI was 64.7 µM.

Q: COc1cc(C2SC(N)=Nc3c2c(C)nn3C(=O)c2ccccc2O)cc(OC)c1OC (centres undefined) was tested. Which TGI did it give?
A: The TGI was over 10 µM.

Q: How did the TGI turn out when N#Cc1ccccc1NC(=O)/C(=N\N)C(C(=O)c1ccncc1)C1OC(=O)c2ccccc21 (centres undefined) was run?
A: Its TGI is over 100 µM.

Q: For O=C(/C=C1\N=C(c2ccccc2)N(c2nc3ccc(Sc4ccccc4)cc3[nH]2)C1=O)/C=C/c1ccccc1, which TGI is on record?
A: Its TGI is over 100 µM.

Q: For CN1N=CSC12C(=O)N(c1ccc(Cl)cc1)C(=O)N2c1ccc(Cl)cc1 (centres undefined), which TGI is on record?
A: Its TGI is 89.1 µM.

Q: Which TGI does the source give for O=C1OC[C@@H]2[C@@H](O)CCCCCN12 here?
A: The TGI was over 100 µM.

Q: CC1CC[C@]2(C(=O)O)CCC3(COC(=O)/C=C\c4ccc(O)cc4)C(=CCC4[C@@]5(C)CC[C@H](O)C(C)(C)C5CC[C@]43C)[C@@H]2[C@H]1C (some centres undefined) was tested. Which TGI did it give?
A: Its TGI is 42.3 µM.

Q: For O=P1(C(O)/C=C/c2ccccc2)N(Cc2ccccc2)[C@H](c2ccccc2)[C@@H](c2ccccc2)N1Cc1ccccc1 (some centres undefined), which TGI is on record?
A: The TGI was over 100 µM.

Q: How did the TGI turn out when C/C(CC/C(C)=N/O)=N\O was run?
A: Its TGI is over 100 µM.

Q: CC(NS(=O)(=O)c1ccc([N+](=O)[O-])cc1)C(=O)O (centres undefined) was tested. Which TGI did it give?
A: The TGI was over 100 µM.

Q: With COc1ccccc1/C=C(\C#N)c1ccccc1 as the molecule, how does the TGI read?
A: The TGI was over 100 µM.

Q: With O=C(Nn1c(-c2ccccc2)nc2ccccc2c1=O)c1ccc(CS)cc1 as the molecule, how does the TGI read?
A: Its TGI is over 100 µM.
